Experimental data from patent US12479841B2, “Anthelmintic compounds comprising azaindoles structure” (Intervet Inc., priority 2019, dated 2025).

tested on: Ascaridia galli (intestinal roundworm of chicken), larval stage 3; experiment: In vitro assay: Ascaridia galli L3 larvae, minimum effective concentration; details: read-out: MEC (minimum effective concentration) against Ascaridia galli L3, L3 larvae, 20 per well, microscopic examination, concentration at which at least one larva shows mortality, change in motility or development
Excerpt: In Vitro Assay: Ascaridia galli and Oesophagostomum dentatum
Ascaridia galli (intestinal roundworm of chicken), larval stage 3 (“L3”); and Oesophagostomum dentatum (nodular worm of swine), larval stages 3 and 4 (respectively “L3” and “L4”) where suspended in a nutrient medium and distributed to 96 well plates with 20 larvae per well. The wells were spiked with DMSO solutions of the compounds with declining concentration.

| SMILES | minimal effective concentration [µM] |
| --- | --- |
| CC1(C)CC(NC(=O)c2cnc3c(ccn3-c3cc(Cl)cc(Cl)c3)c2N2CCOCC2)c2ccccc2O1 (stereo not shown) [Compound 39] | ≤ 50 |
| CN(C)c1cccc(-n2ccc3c(N(C)C)c(C(=O)N[C@H]4CCOc5ccccc54)cnc32)c1 [Compound 30] | ≤ 50 |
| CCOc1c(C(=O)N[C@H]2CCOc3ccccc32)cnc2c1ccn2-c1cc(Cl)cc(Cl)c1 [Compound 43] | ≤ 50 |
| CC1(C)CC(NC(=O)c2cnc3c(ccn3-c3cccc(Cl)c3Cl)c2N2CCOCC2)c2ccccc2O1 (stereo not shown) [Compound 40] | ≤ 50 |
| CN(C)c1c(C(=O)NCc2ccccc2)cnc2c1ccn2-c1cc(Cl)cc(Cl)c1 [Compound 9] | ≤ 50 |
| CN(C)c1c(C(=O)NC2CC(C)(C)Oc3ccccc32)cnc2c1ccn2-c1cccc(Cl)c1Cl (stereo not shown) [Compound 19] | ≤ 50 |
| O=C(NCc1ccccc1)c1cnc2c(ccn2-c2cccc(Cl)c2Cl)c1N1CCOCC1 [Compound 12] | ≤ 50 |
| COc1cccc(-n2ccc3c(N(C)C)c(C(=O)N[C@H]4CCOc5ccccc54)cnc32)c1 [Compound 31] | ≤ 50 |
| CN(C)c1c(C(=O)N[C@H]2CCCc3ccccc32)cnc2c1ccn2-c1cc(Cl)cc(Cl)c1 [Compound 34] | ≤ 50 |
| CN(C)c1c(C(=O)N[C@H]2CCOc3ccccc32)cnc2c1ccn2-c1cccc(C(F)(F)F)c1 [Compound 28] | ≤ 50 |
| CN(C)c1c(C(=O)NC2CC(C)(C)Oc3ccccc32)cnc2c1ccn2-c1cc(Cl)cc(Cl)c1 (stereo not shown) [Compound 38] | ≤ 50 |

tested on: Exsheathed L3 larvae of Haemonchus contortus; experiment: In vitro assay: Haemonchus contortus L3 larval motility; details: 168 h, read-out: ED50 value against Haemonchus contortus, exsheathed L3, 300 larvae/well, 7 days incubation, motility reduced by 50% with respect to the positive control (ivermectin)
Experimental: In Vitro Assay: Haemonchus contortus
Solutions of compounds with declining concentrations in DMSO were prepared, diluted with nutrient medium and distributed to 96 well microtiterplates. Exsheathed L3 larvae of Haemonchus contortus were incubated for 20 min at 37° C. in a water bath, separated by centrifugation and added to the wells with 300 Larvae/well. After incubation for 7 days motility was assessed by automated microscopy. Ivermectin was used as positive control, DMSO as negative control and ED50 values were calculated which represent the concentration for an individual compound that reduces motility by 50% with respect to the positive control.

| SMILES | EC50 [µM] |
| --- | --- |
| Cc1cccc(-n2ccc3c(N(C)C)c(C(=O)N[C@H]4CCOc5ccccc54)cnc32)c1C [Compound 29] | < 50 |
| O=C(NCc1ccccc1)c1cnc2c(ccn2-c2cccc(Cl)c2Cl)c1N1CCOCC1 [Compound 12] | < 50 |
